Results from PubChem BioAssay AID1508623 (National Center for Advancing Translational Sciences (NCATS), 2021).
In all, about 48,000 compounds went through this assay and about 450 (0.94%) were called active. Roughly 19% stayed inconclusive and do not appear here. Calls follow the shape of the dose curve; as a rule, active = well fitted inhibition curve with a large enough effect; inconclusive = small, poorly fitted or top-dose-only effect; inactive = no such curve, though single readings can be large or run the other way. The list shows a part of the results.

Assay: Primary qHTS for Identification of Small Molecule Inhibitors of Huntingtin Promoter Activity; also: nearly all actives have a fitted effect of over 50% in size
Settings: HEK293 HTT promoter firefly luciferase reporter (activity 0% = vehicle and -100% = no light), 24 h; series mostly up to 57.5 µM; activity change, negative = inhibition: at the top concentration
Outline: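 HEK293 Fluc reporter, 2,500 cells/well, 24 h pre-culture; cpds up to 57.5 uM final, 24 h 37 degrees C; Dual-Glo, 10 min RT; normalized vehicle = 0%, zero RLU = -100%.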

Activity change, negative = inhibition, inactive:
CCOC(=O)c1c(S(=O)(=O)N2CCC(C(=O)N3CCN(c4ccc(F)cc4)CC3)CC2)c(C)n(C)c1C -12.5%, Cn1ncc2c(NCc3ccc(F)cc3)ncnc21 -10.3%, Cc1ccc(NC(=O)C2CCCN2S(=O)(=O)c2ccc3c(c2)n(C)c(=O)c(=O)n3C)cc1C (configuration not stated) -12.3%, O=C1N(Cc2ccccc2)c2ccccc2C1(O)c1c[nH]c2ccccc12 (configuration not stated) -20%, Cn1c(=O)c2c(SCC(=O)N3CCc4ccccc43)nc(-c3ccc(Cl)cc3)nc2n(C)c1=O -7.37%, CC(=O)Nc1cccc(C(=O)NCc2ccc3c(c2)CCN3C(=O)c2ccc(F)cc2)c1 -7.84%, Cc1cc(NC(=O)c2ccc(NC(=O)CCS(=O)(=O)c3cccs3)cc2)ccc1Br 10.3%, COc1cccc(NS(=O)(=O)c2ccc3[nH]cc(C(=O)N4CCCC4)c(=O)c3c2)c1 -3.17%, CC(=O)c1ccc(NC(=O)COCc2cc(-c3ccc(F)cc3)on2)cc1 -4.36%, COc1ccccc1NC(=O)C1=C(C)Nc2nc(SCc3ccccc3)nn2C1c1ccncc1 (configuration not stated) -7.21%, COc1cc(OC)c(N(C)C(=O)c2sc3nc4n(c(=O)c3c2C)CCCCC4)cc1Cl 9.31%, COc1cc(NC(=O)Cn2nc3c(cc2=O)CC(C)CC3)cc(OC)c1OC (configuration not stated) -6.94%, CC(C)N(Cc1ccccc1)C(=O)CN1C(=O)CSc2ccc(S(=O)(=O)N3CCCC3)cc21 -26.1%, CCn1cc(C(=O)N2CCN(c3ccc(OC)cc3)CC2)c(=O)c2cc(S(=O)(=O)N3CCOCC3)ccc21 -1.46%, COc1ccc2[nH]cc(CCN=C(NC(=O)c3ccccc3C)Nc3nc(C)cc(C)n3)c2c1 -12.1%, COc1ccc(OCC(=O)Nc2ccc(-c3nc4cc(C)c(C)cc4o3)cc2)cc1 39.9%, O=C(Cn1ncc2c3ccccc3n(Cc3ccc(F)cc3)c2c1=O)NCCCN1CCCCC1 -16.1%, N#Cc1c[nH]n2c(NC3CCCC3)c(-c3ccc(Cl)cc3)nc12 -13.1%, Cc1ccccc1C(C(=O)NC1CCCCC1)N(C(=O)CNc1ccc(C#N)cc1)c1cccc(F)c1 (configuration not stated) 7.2%, CCc1ccc(NC(=O)C(=O)NCCc2sc3nc(-c4ccc(OC)cc4)nn3c2C)cc1 -9.83%, Cc1ccc(CNc2nc3ccc(C)cc3n3nnnc23)cc1 -6.52%, O=C(CCS(=O)(=O)c1cccc2nonc12)Nc1ccc(Br)cc1 -24.4%, CC1=C(C(=O)Nc2ccccc2)C(c2ccc(O)cc2)n2nc(SCc3ccccc3)nc2N1 (configuration not stated) -1.04%, COc1ccc(Cl)cc1NC(=O)CCn1c(=O)oc2ccccc21 -8.55%, Cc1ccccc1NC(=O)CSc1ccc(-c2cccs2)nn1 -7.09%, O=c1[nH]c(SCc2ccc([N+](=O)[O-])cc2)nc2c1CCCC2 -20.6%, O=C(CSc1nccn1Cc1ccccc1)Nc1ccc2c(c1)OCCO2 21.7%, O=C(CSc1nnc(COc2ccccc2)o1)Nc1cc(C(F)(F)F)ccc1Cl -9.79%, Cc1ccc(CNC(=O)Cn2cccc2C(=O)c2ccccc2C)cc1 20.2%, Cc1cccc(OCC(=O)Nc2nonc2-c2ccc(Br)cc2)c1C -30.1%, CCOc1ccc(CC(=O)Nc2ccc3c(c2)N(C)C(=O)c2ccccc2S3)cc1OCC -17.8%, O=C(COc1ccc(Cl)cc1)Nc1sc2c(c1C(=O)Nc1cccc(Cl)c1)CCCC2 -4.44%, Cc1cccc(C)c1-n1ncc(C(=O)NCc2ccc3c(c2)OCO3)c1C1CCN(C(=O)OC(C)(C)C)CC1 -18.2%, CCc1ccc(OCC(=O)N(Cc2ccc(C)cc2)Cc2ccco2)cc1 -23.9%, O=C(Nc1ccc(OC(F)(F)F)cc1)C1CCCN(S(=O)(=O)c2cccc3nonc23)C1 (configuration not stated) -19.1%, CCCCN(C)CCCNC(=O)c1cc(=O)[nH]c2ccc(S(=O)(=O)N3CCCCC3)cc12 -8.92%, CCC1=Nc2cc(C(=O)NC(C)c3ccccc3)ccc2Sc2ccc(Cl)cc21 (configuration not stated) -16.9%, COCCCNC(=O)CN1C(=O)COc2ccc(S(=O)(=O)N3CCCCCC3)cc21 -15.6%, Cc1cccc(-n2cc(-c3ccccc3)c3c(NC(C)C)ncnc32)c1 -21.9%, Cc1ccc(NC(=O)CSc2nc(-c3ccc(F)cc3)nc3c2Cc2c(CO)cnc(C)c2O3)cc1C -14.4%, COC(=O)c1ccccc1NC(=O)CN(c1ccccc1OC)S(C)(=O)=O -13.9%, CN(Cc1ccccc1)C(=O)CCS(=O)(=O)c1cc(Br)cc2c1N(C(=O)C1CC1)CC2 -15.4%, O=C(COc1ccccc1F)Nc1ccccc1OCc1cc(=O)n2ccccc2n1 5.15%, CN1C(CCl)Nc2cc(Cl)c(S(N)(=O)=O)cc2S1(=O)=O (configuration not stated) 3.29%, CC1CCN(C(=O)Cn2cc(SCc3ccccc3)c3ccccc32)CC1 -15.5%, CCCc1nnc(N2C(=O)c3oc4ccc(F)cc4c(=O)c3C2c2ccc(C(=O)OC)cc2)s1 (configuration not stated) 4.74%, COc1ccccc1OCC(=O)Nc1nnc2n1CCS2 13.5%, O=C(C1CCC1)N1CCc2cc(S(=O)(=O)N3CCN(c4ccccc4)CC3)ccc21 -17.3%, CCOc1ccc(-n2cc(C(=O)Nc3ccccc3OCC)c3cc(OC)c(OC)cc3c2=O)cc1 -24.9%, COc1cc2ccccc2cc1C(=O)N1CCN(c2nc3c(C)cc(C)cc3s2)CC1 -15.1%, CC1CCN(C(=O)Cn2cc(SCc3cccc(F)c3)c3ccccc32)CC1 -17.4%, CCc1ccccc1NC(=O)N1CCN(c2nnc(C)c3c(C)n(-c4ccccc4)nc23)CC1 -9.74%, Cc1ccc2nc(-c3ccccc3O)c(Nc3ccccc3C)n2c1 -17.8%, O=c1cc(-c2ccccc2)nc(SCc2nc(-c3ccc(C(F)(F)F)cc3)no2)[nH]1 0.78%, CCc1cccc(N(C)C(N)=Nc2cccc3ccccc23)c1 -12.6%, CC(C)(C)c1ccc(-c2nc3cc(NC(=O)c4cc5ccccc5o4)ccc3o2)cc1 -33.5%, CCCOc1ccc(-c2nc3ccccc3c(=O)o2)cc1 65.6%, COc1ccc(NC(=O)NC2COc3ccccc3C2)c(OC)c1 (configuration not stated) 0.405%, CC(C)c1ccc(NC(=O)C2CCN(S(=O)(=O)c3cccc4nsnc34)CC2)cc1 -12%, O=C(Cn1ccn(-c2cccc(Cl)c2)c(=O)c1=O)NCCc1ccccc1 -14.1%, CC(=O)NS(=O)(=O)c1ccc(N)cc1 -2.51%, Cc1c(C(=O)Nc2nc(-c3ccc(F)cc3)ns2)oc2ccc(Br)cc12 -1.89%
